# Inconclusive means that the source gave no clear call. Such entries were picked first, then a sample of the others. For part of these data: No potency is given beside an inconclusive call; the fits are too rough. The source made the active and inactive calls. The call rests on the fitted dose curve; in most records, active means well fitted curve in the direction sought with a large enough effect; inconclusive means small, poorly fitted or top-dose-only effect, or another doubt; inactive means no such curve, though single readings can be large; an effect the other way counts as inactive or inconclusive.
# How the values were obtained:
# [1] = target: Rap guanine nucleotide exchange factor 3 (Homo sapiens) (UniProt O95398); assay: Confirmatory qHTS for antagonist of cAMP-regulated guanine nucleotide exchange factor 3 (EPAC1) (AID 1645880); conditions: EPAC1 Rap1B-BODIPY-GDP exchange, fluorescence; activity, negative = inhibition: at 115 µM (top of the series); further: nearly all actives have a fitted effect of over 55% in size; further: potency means the concentration at half of the fitted maximal effect;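 on activity, negative = inhibition: plate controls were DMSO only for no effect and full effect of the ATA control for full effect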
# Method in brief: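 Nucleotide exchange uses 100 nM EPAC1, 250 nM RAP1B-BODIPY-GDP and 50 uM GDP, with compounds in a concentration-titration series. After 5 min at room temperature, fluorescence (480 nm ex/540 nm em) is read every 5 min for 30 min. Data are normalized to control ATA and DMSO.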
# [2] = target: Rap guanine nucleotide exchange factor 3 (Homo sapiens) (UniProt O95398); assay: Confirmatory qHTS for agonist of cAMP-regulated guanine nucleotide exchange factor 3 (EPAC1) (AID 1645881); conditions: EPAC1 Rap1B BODIPY-GDP exchange fluorescence; activation: at 154 µM (top of the series), 100% = cAMP control response; further: nearly all actives have a fitted effect of over 75% in size; further: potency means the concentration at half of the fitted maximal effect;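 on activation: EPAC1 catalysed release of BODIPY-GDP from Rap1B seen as fluorescence loss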
# [3] = target: Rap guanine nucleotide exchange factor 3 (Homo sapiens) (UniProt O95398); assay: Counterscreen qHTS for agonist of cAMP-regulated guanine nucleotide exchange factor 3 (EPAC1) (AID 1645889); conditions: EPAC1 Rap1B-BODIPY-GDP exchange, fluorescence; activation: at 154 µM (top of the series) unless noted; further: nearly all actives have a fitted effect of over 40% in size; further: potency means the concentration at half of the fitted maximal effect; on activation: % of control where 0% means no effect
# Method in brief: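 Rap1B-BODIPY-GDP 250 nM + GDP 50 uM; cpds 7-pt, final 9.74 nM–152 uM (activator mode) or from 7.32 nM upwards (inhibitor mode); RT; FI 480/540 nm at 5 and 30 min, then ± cAMP, reread.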
# [4] = target: Lethal(3)malignant brain tumor-like protein 1 (Homo sapiens) (UniProt Q9Y468); assay: qHTS Assay for the Inhibitors of L3MBTL1: Hit Validation (AID 540279); conditions: L3MBTL1 methyl-lysine binding inhibition, biochemical qHTS; further: potency means the concentration at half of the fitted maximal effect; nearly all actives have a fitted effect of over 70% in size
# Method in brief: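 AlphaScreen displacement: 50 nM L3MBTL1 bound to 75 nM biotin-H3K9me1 peptide for 30 min, compound added for 30 min at room temperature, then beads at 10 ug/mL final for 30 min in the dark. Cefsulodin titration served as intraplate control.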
# [5] = target: Rap guanine nucleotide exchange factor 4 (Homo sapiens) (UniProt Q8WZA2); assay: Confirmatory qHTS for agonist of cAMP-regulated guanine nucleotide exchange factor 4 (EPAC2) (AID 1645884); conditions: EPAC2 GEF activity, Rap1B-BODIPY-GDP fluorescence; activation: at 154 µM (top of the series), percent relative to cAMP agonist control;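 further: nucleotide exchange releases bodipy-GDP from Rap1 and this lowers its fluorescence; nearly all actives have a fitted effect of over 65% in size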; further: potency means the concentration at half of the fitted maximal effect; on activation: on the % scale 0 is the no-effect control and ±100 the full control effect
# [6] = target: DNA repair nuclease/redox regulator APEX1 (Homo sapiens) (UniProt P27695); assay: qHTS FP-Based Assay for Inhibitors of the Human Apurinic/apyrimidinic Endonuclease 1 (APE1) (AID 2573); further: on the % scale 0 is the no-effect control and ±100 the full control effect
# [7] = target: DNA polymerase eta (Homo sapiens) (UniProt Q9Y253); assay: qHTS for Inhibitors of Polymerase Eta: Confirmatory Assay for Cherry-picked Compounds (AID 720502); conditions: Pol eta primer extension, TAMRA/BHQ fluorescence, 10 min; further: potency means the concentration at half of the fitted maximal effect
# Method in brief: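 Quenched-fluorescence replication assay: 10 nM Pol eta, 50 nM substrate final, 15 min compound preincubation at room temperature, 10 min kinetic reaction read at 525/598 nm.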
# Tags describe the fitted curve by direction and shape.
# Chain of UniProt Q8WZA2 (Q8WZA2 whole entry, looked up): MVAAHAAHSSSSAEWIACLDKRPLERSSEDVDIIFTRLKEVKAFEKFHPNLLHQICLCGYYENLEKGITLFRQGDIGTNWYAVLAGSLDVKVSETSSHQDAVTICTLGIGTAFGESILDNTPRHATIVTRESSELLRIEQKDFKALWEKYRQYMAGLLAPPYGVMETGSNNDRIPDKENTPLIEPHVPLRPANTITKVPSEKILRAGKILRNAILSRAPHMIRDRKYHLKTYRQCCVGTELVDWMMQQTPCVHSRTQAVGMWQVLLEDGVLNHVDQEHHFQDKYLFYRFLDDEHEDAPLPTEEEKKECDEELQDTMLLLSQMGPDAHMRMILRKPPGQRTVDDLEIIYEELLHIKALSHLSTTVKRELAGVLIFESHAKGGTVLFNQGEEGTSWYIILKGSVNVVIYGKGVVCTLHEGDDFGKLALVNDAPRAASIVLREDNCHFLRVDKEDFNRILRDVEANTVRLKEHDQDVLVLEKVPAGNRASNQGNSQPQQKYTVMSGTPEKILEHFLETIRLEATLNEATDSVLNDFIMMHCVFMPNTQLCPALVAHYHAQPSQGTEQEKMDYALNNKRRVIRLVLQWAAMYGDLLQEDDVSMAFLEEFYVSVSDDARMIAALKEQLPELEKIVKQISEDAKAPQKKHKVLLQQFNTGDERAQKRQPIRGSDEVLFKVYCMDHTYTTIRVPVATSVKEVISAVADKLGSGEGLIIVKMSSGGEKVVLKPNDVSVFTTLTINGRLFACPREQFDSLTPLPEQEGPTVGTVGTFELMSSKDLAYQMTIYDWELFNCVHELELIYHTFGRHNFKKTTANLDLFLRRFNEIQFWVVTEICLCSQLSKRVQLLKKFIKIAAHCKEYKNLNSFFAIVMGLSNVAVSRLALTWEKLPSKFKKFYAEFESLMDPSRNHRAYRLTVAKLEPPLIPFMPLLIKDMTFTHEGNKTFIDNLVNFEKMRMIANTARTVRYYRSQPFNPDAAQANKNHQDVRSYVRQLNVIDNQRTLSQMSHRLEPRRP
# Chain of UniProt O95398 (O95398 whole entry, looked up): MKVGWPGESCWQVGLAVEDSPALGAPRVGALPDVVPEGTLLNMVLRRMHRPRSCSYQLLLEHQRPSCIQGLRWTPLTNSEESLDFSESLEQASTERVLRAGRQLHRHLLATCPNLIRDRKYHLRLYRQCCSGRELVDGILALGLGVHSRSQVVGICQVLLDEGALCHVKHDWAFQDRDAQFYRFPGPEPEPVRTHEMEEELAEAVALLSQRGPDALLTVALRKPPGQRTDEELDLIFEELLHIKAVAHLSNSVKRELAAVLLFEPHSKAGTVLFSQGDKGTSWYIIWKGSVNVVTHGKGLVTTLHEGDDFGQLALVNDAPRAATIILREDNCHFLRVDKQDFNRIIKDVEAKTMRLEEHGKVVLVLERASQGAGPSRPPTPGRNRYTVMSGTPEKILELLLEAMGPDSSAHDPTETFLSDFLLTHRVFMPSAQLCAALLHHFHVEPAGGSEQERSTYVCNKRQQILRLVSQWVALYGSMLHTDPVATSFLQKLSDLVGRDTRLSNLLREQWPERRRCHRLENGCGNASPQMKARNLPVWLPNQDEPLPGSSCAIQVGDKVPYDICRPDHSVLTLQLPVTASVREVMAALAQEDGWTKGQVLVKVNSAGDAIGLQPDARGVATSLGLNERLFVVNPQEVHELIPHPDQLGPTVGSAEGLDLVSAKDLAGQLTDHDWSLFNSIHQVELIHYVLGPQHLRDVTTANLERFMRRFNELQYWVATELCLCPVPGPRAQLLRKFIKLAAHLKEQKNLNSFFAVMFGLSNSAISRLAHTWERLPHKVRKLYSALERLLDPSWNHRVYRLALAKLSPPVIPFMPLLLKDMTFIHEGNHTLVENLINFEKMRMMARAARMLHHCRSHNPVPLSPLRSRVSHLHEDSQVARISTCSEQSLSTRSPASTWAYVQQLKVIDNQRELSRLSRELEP
# Chain of UniProt Q9Y468 (Q9Y468 whole entry, looked up): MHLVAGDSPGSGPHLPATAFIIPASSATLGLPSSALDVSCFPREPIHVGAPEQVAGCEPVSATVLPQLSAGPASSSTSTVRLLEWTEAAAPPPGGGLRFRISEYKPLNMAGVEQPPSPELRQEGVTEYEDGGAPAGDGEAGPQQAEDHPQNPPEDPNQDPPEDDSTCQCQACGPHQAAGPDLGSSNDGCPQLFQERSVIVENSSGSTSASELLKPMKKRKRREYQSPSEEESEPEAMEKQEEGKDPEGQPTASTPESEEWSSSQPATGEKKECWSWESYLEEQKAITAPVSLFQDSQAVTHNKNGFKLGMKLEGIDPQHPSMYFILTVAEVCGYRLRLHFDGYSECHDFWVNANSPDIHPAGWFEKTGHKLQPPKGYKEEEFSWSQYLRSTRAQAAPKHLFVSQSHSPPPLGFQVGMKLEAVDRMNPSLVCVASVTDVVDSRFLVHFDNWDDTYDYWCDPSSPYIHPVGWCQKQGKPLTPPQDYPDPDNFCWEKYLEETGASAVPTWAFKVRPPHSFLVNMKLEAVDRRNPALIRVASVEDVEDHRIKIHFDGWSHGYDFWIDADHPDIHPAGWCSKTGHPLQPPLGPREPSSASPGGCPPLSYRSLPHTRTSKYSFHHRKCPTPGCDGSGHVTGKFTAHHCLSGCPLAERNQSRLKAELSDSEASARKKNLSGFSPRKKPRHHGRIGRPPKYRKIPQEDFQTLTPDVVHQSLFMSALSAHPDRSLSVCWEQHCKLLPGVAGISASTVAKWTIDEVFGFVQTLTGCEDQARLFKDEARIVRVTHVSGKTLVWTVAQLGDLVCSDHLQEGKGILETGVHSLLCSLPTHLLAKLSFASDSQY
# Chain of UniProt P27695 (P27695 whole entry, looked up): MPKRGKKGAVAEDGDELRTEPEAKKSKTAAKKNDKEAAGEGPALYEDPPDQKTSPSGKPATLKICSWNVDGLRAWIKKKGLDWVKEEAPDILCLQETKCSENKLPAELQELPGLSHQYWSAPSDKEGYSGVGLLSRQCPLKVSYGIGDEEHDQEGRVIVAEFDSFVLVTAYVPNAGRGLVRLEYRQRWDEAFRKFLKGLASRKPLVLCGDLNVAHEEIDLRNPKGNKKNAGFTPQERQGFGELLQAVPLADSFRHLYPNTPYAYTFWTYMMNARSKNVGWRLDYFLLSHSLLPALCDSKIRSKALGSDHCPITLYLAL
# Chain of UniProt Q9Y253 (Q9Y253 whole entry, looked up): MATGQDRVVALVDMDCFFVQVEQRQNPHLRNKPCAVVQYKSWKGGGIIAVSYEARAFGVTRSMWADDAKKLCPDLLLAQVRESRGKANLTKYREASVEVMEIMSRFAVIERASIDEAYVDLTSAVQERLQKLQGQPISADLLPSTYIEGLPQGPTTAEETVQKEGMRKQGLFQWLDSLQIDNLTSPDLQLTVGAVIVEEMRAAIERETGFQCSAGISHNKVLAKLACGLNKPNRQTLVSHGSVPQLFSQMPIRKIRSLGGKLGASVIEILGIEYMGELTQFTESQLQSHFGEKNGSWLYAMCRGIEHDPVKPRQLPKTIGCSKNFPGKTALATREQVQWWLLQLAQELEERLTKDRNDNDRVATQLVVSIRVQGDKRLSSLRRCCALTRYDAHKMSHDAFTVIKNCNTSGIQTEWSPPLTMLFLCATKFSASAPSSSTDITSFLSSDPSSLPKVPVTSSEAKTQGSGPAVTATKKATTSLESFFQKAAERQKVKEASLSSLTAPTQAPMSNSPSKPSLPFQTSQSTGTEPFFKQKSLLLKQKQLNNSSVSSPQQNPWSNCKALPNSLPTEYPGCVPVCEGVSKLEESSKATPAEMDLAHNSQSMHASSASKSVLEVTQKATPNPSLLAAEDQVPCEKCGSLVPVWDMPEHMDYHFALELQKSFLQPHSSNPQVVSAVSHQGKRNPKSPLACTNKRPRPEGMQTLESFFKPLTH
structure (smiles),measurement,setting,value
CN(C(=O)c1ccccc1F)C(c1ccccc1)c1ccccc1,Potency,[1],"inconclusive [inhibitor, partial curve]"
same,Potency,[2],"inconclusive [activator, partial curve]"
same,Potency,[3],"inconclusive [activator, partial curve, poor fit]"
COc1ccc(C(C)(NC(C)=O)c2nc(-c3cc(F)cc(F)c3)cs2)cc1 (configuration not stated),Potency,[1],"inconclusive [inhibitor, full curve, poor fit]"
same,Potency,[2],inactive
same,activation,[3],inactive: 15% [at 30.8 µM]
CC(=O)N1CCc2nc3sc(C(=O)c4ccc(F)cc4)c(N)c3c(C(F)(F)F)c2C1,Potency,[1],"inconclusive [inhibitor, single point]"
same,Potency,[2],"inconclusive [activator, partial curve, poor fit]"
same,activation,[3],inconclusive: 166% [activator]
Cc1cccc(N(Cc2ccccc2)C(=O)CSC(C)C(=O)Nc2cc(C)on2)c1 (configuration not stated),Potency,[1],"inconclusive [inhibitor, partial curve, poor fit]"
same,Potency,[2],inactive
same,activation,[3],inconclusive: 49.7% [activator]
Cc1ccccc1NC(=O)c1sc2nc(-c3cc4ccccc4oc3=O)[nH]c(=O)c2c1C,Potency,[1],"inconclusive [inhibitor, partial curve, poor fit]"
same,Potency,[2],inactive
same,Potency,[3],"inconclusive [activator, full curve]"
O=C(c1ccccc1Br)N(Cc1ccccc1)c1ccccc1,Potency,[1],"inconclusive [inhibitor, partial curve, poor fit]"
same,Potency,[2],"inconclusive [activator, partial curve, poor fit]"
same,Potency,[3],"inconclusive [activator, full curve, poor fit]"
CCc1nc2c(OCc3ccc(OC)cc3)cccn2c1N(C)C(=O)c1ccc(OC)cc1,Potency,[1],"inconclusive [inhibitor, partial curve, poor fit]"
same,Potency,[2],inactive
same,Potency,[3],"inconclusive [activator, partial curve]"
CC1=NN(c2ccc(C)c(C)c2)C(=O)C1C(c1cccc(O)c1)C1C(=O)N(c2ccc(C)c(C)c2)N=C1C (configuration not stated),Potency,[1],"inconclusive [inhibitor, partial curve, poor fit]"
same,Potency,[2],inactive
same,Potency,[3],"inconclusive [activator, partial curve]"
O=C(O)CC/C(=C\c1cccc(NC(=O)c2ccccc2Cl)c1)c1nc2ccccc2s1,Potency,[4],"inconclusive [inhibitor, single point]"
same,Potency,[1],"inconclusive [inhibitor, partial curve]"
same,Potency,[2],"inconclusive [activator, partial curve, poor fit]"
same,Potency,[3],inactive
COc1ccccc1/C=C(/C(=O)OCC(=O)Nc1ccc(N(C)C)cc1)c1ccccc1,Potency,[1],"inconclusive [inhibitor, partial curve]"
same,Potency,[5],"inconclusive [activator, partial curve, poor fit]"
COc1ccc(CCn2c(O)cc3nn(-c4nc5ccccc5s4)c(=O)c-3c2C)cc1,Potency,[6],inactive
same,Potency,[1],"inconclusive [inhibitor, partial curve]"
same,Potency,[2],"inconclusive [activator, single point]"
CCOc1cc(-c2c(C#N)c(N)nc3c2CCCC3C)ccc1O (configuration not stated),Potency,[1],"inconclusive [inhibitor, partial curve]"
same,Potency,[5],active: 0.398 µM
O=C(N/N=C/c1cc(Br)c(O)c(Br)c1)c1cc2c(ccc3ccccc32)o1,Potency,[1],active: 39.8 µM
same,activation,[5],"inactive: -5.24% [at 17.1 µM, percent relative to cAMP agonist control]"
COc1cc2ccccc2cc1C(=O)NC(=S)Nc1cccc(C(=O)O)c1,Potency,[7],"inconclusive [inhibitor, single point]"
same,Potency,[1],"inconclusive [inhibitor, partial curve]"
same,Potency,[2],"inconclusive [activator, partial curve, poor fit]"
CC(OC(=O)CCN1C(=O)C2CC=CCC2C1=O)C(=O)Nc1cccc(C#N)c1 (configuration not stated),Potency,[1],inactive
same,activation,[5],"inactive: 3.57% [at 17.1 µM, percent relative to cAMP agonist control]"

# Reference: PubChem BioAssay (NCATS)
